The source gives no read counts; variants with many changes may rest on few reads.

B1: CPEB3 Ribozyme (parent)
chain: UAACAGGGGGCCACAGCAGAAGCGUUCACGUCGCAGCCCCUGUCAGAUUCUGGUGAAUCUGCGAAUUCUGCUGUAUAUCUC

The data set covers variants of B1. The data set can be described thus: self-cleavage, relative activity (ratio to wild type); higher = more cleavage; in vitro, sequencing. Put shortly: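 Libraries of CPEB3 self-cleaving ribozyme mutants came from rounds of error-prone PCR and carried barcodes, which DNA sequencing matched to variants. In vitro transcription used T7 RNA polymerase at 37°C for 5 hours, with a further 15 min in DNase I before EDTA stopped the reaction; the ribozymes cleaved during both steps. The RNA was reverse transcribed with template switching and sequenced on Illumina. Relative activity is the cleaved/total read fraction of a variant divided by that of the unmutated ribozyme, averaged over three batches with at least 5 reads.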
In the case of A5U G9A U74A, the self-cleavage was 0.51.

As for A5U U26A U41A A56U U60A, the self-cleavage was found to be 0.15.

As for A5U U25C U31C, the self-cleavage worked out at 0.25.

With A5U U25C A28G C50U G53A U72A, the self-cleavage was found to be 0.17.

Regarding A5U A18U U43G U49C, the self-cleavage was 0.06.

In the case of A5U U25C U60A, the self-cleavage was found to be 0.

Turning to A5U A35U G61C U76C, the self-cleavage amounted to 0.22.

Turning to A5U U26C U51A U69C, the self-cleavage is 0.46.

Regarding A5U C27U U78C U80A, the self-cleavage amounted to 0.14.

On to A5U U26C A35U A47G, for which the self-cleavage turned out to be 0.21.

For A5U G53C U67C, the self-cleavage is 0.36.

For A5U A35G U49C U80A, the self-cleavage amounted to 1.14.

As for A5U C17A U43C, the self-cleavage is 0.35.

Take A5U G9U A56U U67A U74A: the self-cleavage stood at 0.31.

Turning to A5U G6A U49C U51C G52U U67A, the self-cleavage amounted to 0.08.

As to A5U U26C U43A U49C U58C U67C, the self-cleavage turned out to be 0.07.

Take A5U C23U C32A A45U: the self-cleavage was 0.28.

As for A5U U26A A35C U54C A56U A65C, the self-cleavage was found to be 0.09.

A5U G8C U25A U26A U51G: the self-cleavage was 0.4.

As for A5U U25C A45G U66C U67C, the self-cleavage is 0.26.

With A5U U26A A28G A47G U72C, the self-cleavage was determined as 0.72.

On to A5U C23U C32U C40U U54C U72C U74C, for which the self-cleavage came to 0.06.

Turning to A5U G52A U66C, the self-cleavage was 0.36.

Consider A5U A15G C37U U41A, for which the self-cleavage worked out at 0.54.

With A5U C32U U60C U76C U80C, the self-cleavage is 0.22.

A5U G9C A13G A28G: the self-cleavage came to 0.34.

With A5U G63A A77G, the self-cleavage worked out at 1.03.

Turning to A5U A57U U69A, the self-cleavage came out at 0.22.

For the variant A5U A15G A45G C62G U80C, the self-cleavage is 0.24.

Take A5U G9U A35U A57U C71U: the self-cleavage worked out at 0.12.

As for A5U G6A U72C A77U, the self-cleavage is 0.52.

On to A5U U25C A35G A57G U66C U80C, for which the self-cleavage turned out to be 0.14.

Turning to A5U A15G G33U A45U U54G A56G U69C, the self-cleavage is 0.1.

Consider A5U G6A U43A U54C U80A, for which the self-cleavage amounted to 0.56.

Regarding A5U G30A U41A U74G, the self-cleavage amounted to 0.16.

On to A5U A35U A57G U60C, for which the self-cleavage turned out to be 0.2.

With A5U C12U A20G A35C U66C, the self-cleavage was 0.25.

In the case of A5U A35U U48C U67A G70A U72C, the self-cleavage came to 0.19.

Take A5U C11U U31A C40U A65U: the self-cleavage turned out to be 0.21.

For A5U U25C U69C C79A, the self-cleavage worked out at 0.23.

A5U A18U U26G U80A: the self-cleavage came to 0.05.

Turning to A5U A13U U25C A45G U66C, the self-cleavage was determined as 0.48.

In the case of A5U C11G A13U G24A U51G U78A, the self-cleavage came out at 0.08.

A5U A57G U58C A65G U78C: the self-cleavage came out at 0.29.

As to A5U C11G U25C U41C U43C U49C U76C, the self-cleavage came to 0.12.

In the case of A5U A35U C40G U60C, the self-cleavage amounted to 0.06.

Consider A5U A20G U25C, for which the self-cleavage amounted to 0.49.

As to A5U C12A A15G C32A, the self-cleavage turned out to be 0.2.

For A5U A13U U25C A64G, the self-cleavage turned out to be 0.11.

On to A5U A21G U26C C40A U60A, for which the self-cleavage came to 0.07.

Take A5U U26C C40G U48C A65G: the self-cleavage amounted to 0.22.

Take A5U U25C A28U: the self-cleavage amounted to 0.22.

Consider A5U C14U U54C U58A A64G, for which the self-cleavage turned out to be 0.34.

Consider A5U A21G U26C A56C A64U, for which the self-cleavage was found to be 0.17.

For A5U A35U U51A U66C U69A, the self-cleavage was 0.29.

Regarding A5U A47G U78C, the self-cleavage worked out at 0.86.

A5U U25C G30A U58C A64G U78A: the self-cleavage was 0.18.

Turning to A5U U25C G30A U48C U58A A65G, the self-cleavage was found to be 0.06.

As to A5U A15G G24A U51C, the self-cleavage was found to be 0.34.

Consider A5U A21G U60C, for which the self-cleavage amounted to 0.22.

Regarding A5U A21G U60A, the self-cleavage was found to be 0.36.

Take A5U A47G A65G: the self-cleavage amounted to 0.37.

As for A5U A47G A56G, the self-cleavage stood at 0.61.

As to A5U G8A U25C U48A U60A, the self-cleavage turned out to be 0.07.

For A5U C23U U60C, the self-cleavage was 0.3.

As to A5U A21G U43G, the self-cleavage was 0.43.

A5U G19A C23U U51C A56G U67C U69A: the self-cleavage turned out to be 0.06.

With A5U C40U A47U U58C U80C, the self-cleavage came out at 0.33.

For A5U A47G U51C, the self-cleavage came out at 0.95.

In the case of A5U G9A A13G U41A U60A A65G, the self-cleavage worked out at 0.07.

In the case of A5U A21G C29U C37U U43G A77U, the self-cleavage stood at 0.33.

Regarding A5U A15G A18G C39U A65G, the self-cleavage is 0.15.

With A5U G8A U25C A28G U54C A75U, the self-cleavage stood at 0.04.

Regarding A5U G7A U43A A57G A64U, the self-cleavage was 0.06.

Regarding A5U A56G C62U A64G U80C C81U, the self-cleavage turned out to be 0.3.

As for A5U C12A U26C U41A U43C U54C U76C, the self-cleavage was 0.07.

As to A5U A20U U43C U66C U78C, the self-cleavage is 0.13.

A5U G10A U49A U58C A64U: the self-cleavage worked out at 0.08.

For A5U A15U G16A A28G A45U, the self-cleavage was 0.1.

As for A5U C23A U41C U48C U49C, the self-cleavage stood at 0.15.

With A5U G30A U41G U69A, the self-cleavage was 0.09.

As to A5U C38U U58A A64G U78C, the self-cleavage worked out at 0.23.

Take A5U G6A A15U A18G A35U U74C: the self-cleavage was determined as 0.09.

For the origin of these results see the RNAGym collection of RNA variant scans (doi:10.1093/nar/gkz1192).
